These results are taken from PubChem BioAssay AID1347073 (National Center for Advancing Translational Sciences (NCATS), 2019).

Structures are written as SMILES. Among all 45,000 compounds or so, about 200 (0.44%) were called active. Not shown: some 7% with an inconclusive outcome. Calls come from the whole dose curve; as a rule, active = well fitted activation curve with a large enough effect; inconclusive = small, poorly fitted or top-dose-only effect; inactive = no such curve, though single readings can be large or run the other way. Some of the results follow.

The test is described as follows: qHTS of TDP-43 Inhibitors: NCGC Sytravon Library Screen. Note: 0% is about no effect; nearly all actives have a fitted effect of over 55% in size. The note with it: yeast TDP-43 toxicity rescue, BacTiter-Glo growth, 24 h; series mostly up to 46.1 µM; growth rescue (activation): at the top concentration. A digest of the protocol:
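TDP-43-expressing yeast, pregrown in raffinose, seeded at OD600 0.02 in galactose medium with compound for 24 hr at 30 deg C. Growth read by BacTiter-Glo luminescence, so rescue of toxicity appears as activation.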
In the case of `COc1ccc(-n2cc(CNC3CCN(C)CC3)c(-c3cccc(F)c3)n2)cc1`, the “growth rescue (activation)” value is inactive: -0.552%. On to `CC(C)c1ccc(NC(=O)Nc2nc(CN)cs2)cc1`, for which the “growth rescue (activation)” value was inactive: -5.64%. Consider `CC(=NNC(=O)Cn1ccc(C(F)(F)F)n1)c1ccc(-n2ccnc2)cc1`, for which the “growth rescue (activation)” value is inactive: 9.42%.

With `COc1ccc(NC(=O)c2cc(C3CCCCN3S(=O)(=O)c3c(C)noc3C)on2)c(C)c1` (stereo not drawn), the “growth rescue (activation)” value is inactive: 6.29%.

On to `CN(Cc1cccs1)C(=O)Cc1c[nH]c2ccccc12`, for which the “growth rescue (activation)” value was inactive: 4.14%.

In the case of `Cc1cc(N/N=C/c2cccc([N+](=O)[O-])c2)nc(-n2nc(C)cc2C)n1`, the “growth rescue (activation)” value is inactive: 19.1%. The result for `CCOC(=O)C1(C)CCCN(C(=O)c2ccccc2OC(F)(F)F)C1` (stereo not drawn) reads inactive: 16.3%.

`O=C(Cc1ccc(Br)cc1)N1CCN(c2ccccn2)CC1`: the “growth rescue (activation)” value is inactive: 11.6%. Regarding `O=C(/C=C/c1ccccc1Cl)OCC(=O)N1CCCC1`, the “growth rescue (activation)” value was inactive: -4.8%. The result for `CN(c1cccc(NC(=O)c2ccccc2N(C)S(=O)(=O)c2ccccc2)c1)S(C)(=O)=O` reads inactive: -0.414%; that for `CCCCC(=O)c1c(O)c2ccccc2oc1=O`, inactive: -89.3%. With `COC(=O)c1ccc(-c2ccc(/C=N/NC(=O)CC3(C)OCCCO3)o2)cc1`, the “growth rescue (activation)” value is inactive: 14.3%. The result for `COCc1c(C(=O)NC(C)c2ccc(S(N)(=O)=O)cc2)oc2ccccc12` (stereo not drawn) reads inactive: 20.1%; that for `COc1ccc(CN2CCN(C(=O)C3CCC(CNS(=O)(=O)c4ccc(C)cc4)CC3)CC2)c(OC)c1OC` (stereo not drawn), inactive: -4.03%.

With `Cc1ccc(C)c(C(=O)COC(=O)CNS(=O)(=O)c2ccccc2)c1`, the “growth rescue (activation)” value was inactive: 16.4%. On to `Cc1cc(N2CCCC2=O)ccc1S(=O)(=O)NC1CCCCC1`, for which the “growth rescue (activation)” value is inactive: 4.07%. As for `Cc1ccc(NC(=O)c2ccc3c(c2)N(CC(=O)NC(C)C)C(=O)C(C)(C)O3)cc1`, the “growth rescue (activation)” value was inactive: 2.38%. With `CCOc1ccc(/C=C/C(O)=C2/C(=O)NC3(C)CC2c2ccccc2O3)cc1OC` (stereo not drawn), the “growth rescue (activation)” value was inactive: 13.2%. The result for `COc1cc(/C=C/C(=O)c2ccc(NS(=O)(=O)c3ccc(C)cc3)cc2)cc(OC)c1O` reads inactive: 11.9%. On to `Cc1cccc2[nH]c(CN(C)C(=O)CC3C(=O)NCCN3CC(C)(C)C)nc12` (stereo not drawn), for which the “growth rescue (activation)” value is inactive: -3.09%.

For `O=C(CCC1CCCN(C(=O)CCN2CCCCC2=O)C1)NCc1ccccc1F` (stereo not drawn), the “growth rescue (activation)” value was inactive: 5.52%. Next, `O=C(Nc1cc(S(=O)(=O)N2CCCCC2)ccc1N1CCOCC1)c1ccc(F)cc1`: inactive: 9.01%; `O=C(OCC(=O)N1CCOCC1)c1ccccc1OCc1ccccc1Cl`: inactive: 9.47%; `C=CCn1c(=S)[nH]c2scc(-c3ccco3)c2c1=O`: inactive: 10.4%. As to `Cc1cc(C)n(C(=O)c2ccc([N+](=O)[O-])c(Cl)c2)n1`, the “growth rescue (activation)” value was inactive: 12.7%. The result for `CCOc1ccc(NC(=O)CCS(=O)(=O)c2ccc(C)cc2)cc1` reads inactive: 3.06%; that for `COc1cccc(NC(=O)CN2C(=O)NC3(CCCCCC3)C2=O)c1`, inactive: -10.4%. For the molecule `CCN(CC)c1ccc(C(=O)OCC(=O)Nc2ccc3[nH]c(=O)[nH]c3c2)cc1`, the “growth rescue (activation)” value was inactive: 8.58%.
